According to PubChem BioAssay AID1466 (National Center for Advancing Translational Sciences (NCATS), 2008):
The campaign covered roughly 200,000 compounds. About 10 (0.005%) were called active. Inconclusive means that the source gave no clear call. Such entries were picked first, then a sample of the others. Calls come from the whole dose curve; as a rule, active = well fitted inhibition curve with a large enough effect; inconclusive = small, poorly fitted or top-dose-only effect, or effect the other way, or another doubt; inactive = no such curve, though single readings can be large or run the other way. A potency beside an inconclusive call is a rough fit, not a confirmed value.

Each compound was assayed against Lysosomal alpha-glucosidase (Homo sapiens) (UniProt P10253) (assay: qHTS Assay for Inhibitors of Human alpha-Glucosidase as a Potential Chaperone Treatment of Pompe Disease). Conditions: purified human GAA, 4-MU-alpha-glucoside fluorescence; activity change, negative = inhibition: at 76.9 µM (top of the series) unless noted.
In short: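 AC50 values come from Hill fits of compound titrations (up to 77 uM) against 4 nM human enzyme. Substrate 4-methylumbelliferyl-alpha-D-pyranoside at 400 uM, pH 5.0 citrate buffer, 20 min room temperature; fluorescence Ex 365/Em 440 after alkaline stop.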
Potency is the fitted concentration of half-maximal effect; tags give direction and shape of the fitted curve.
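Throughout, for activity change, negative = inhibition: plate controls were uninhibited enzyme wells for no effect and no-enzyme background for full effect.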

Activity change, negative = inhibition, inconclusive:
Cc1ccccc1Nc1nc(N)nc(CN(C)c2ccccc2)n1 -17.5% [inhibitor]
CCOn1c(=O)c(-c2ccc(OC)c(OC)c2)[n+]([O-])c2ccccc21 8.28% [activator]
c1coc(C2=Nc3cccc4cccc(c34)N2)c1 11.2% [activator]
Cc1ccc(C)c(S(=O)(=O)Nc2ccc(C(N)=O)cc2)c1 17.6% [activator]
O=S(=O)(c1ccccc1)c1cnn2c(C(F)(F)F)cc(-c3ccccc3)nc12 7.31% [activator]
CC(C)(C)NC(=O)CN(Cc1cccs1)C(=O)C1COc2ccccc2O1 (centres undefined) 16.5% [activator]

Potency, inactive:
CC(=O)Nc1cccc(NC(=O)CSc2ccc(-c3cccnc3)nn2)c1
O=C1NN(c2ccccc2)C(=O)/C1=C\c1cccc(OC(=O)c2cccs2)c1

Potency, inconclusive:
O=C(COC(=O)c1cccc(S(=O)(=O)N2CCOCC2)c1)Nc1ccc2c(c1)OCO2 7.08 µM [inhibitor, single point]
Cc1cccc(-n2c(=O)[nH]c3c(C(N)=O)nc(CC(C)C)nc32)c1 39.8 µM [activator, partial curve]
COCCOC(=O)C1=C(C)N=C2SCCC(=O)N2C1c1cccs1 (centres undefined) 0.355 µM [activator, full curve, poor fit]
CCCOc1ccc(C(=O)N2CCN(c3ccc(NC(=O)CC)cc3Cl)CC2)cc1 1.58 µM [inhibitor, full curve, poor fit]
COc1ccc(CCNC(=O)COc2ccc(S(=O)(=O)NC3CCCCC3)cc2Cl)cc1OC 25.1 µM [inhibitor, partial curve]
CCSc1ncc(Cl)c(C(=O)N(Cc2ccc(N(C)C)cc2)C2CCS(=O)(=O)C2)n1 (centres undefined) 3.16 µM [inhibitor, partial curve]
CSc1nnc(-c2sc3cc(C(F)(F)F)cnc3c2-c2cccnc2)n1C 12.6 µM [inhibitor, single point]
Cc1c(NC(=O)c2ccc(C(C)(C)C)cc2)cccc1[N+](=O)[O-] 6.31 µM [inhibitor, partial curve]
CCOC(=O)c1c(-c2ccc(C)cc2)cn2ccccc12 31.6 µM [activator, partial curve]
O=C(CN1C(=O)c2ccccc2S1(=O)=O)NC(Nc1ccccc1F)C(Cl)(Cl)Cl (centres undefined) 7.94 µM [inhibitor, full curve]
O=C(Nc1ccccc1)N1C(=O)C2(OCCO2)c2ccccc21 56.2 µM [inhibitor, single point]
S=c1[nH]nc(-c2cc(-c3ccco3)[nH]n2)n1-c1cccc2ccccc12 3.98 µM [inhibitor, full curve]
Nc1cc(C(=O)O)ccc1Nc1ccccc1 31.6 µM [activator, single point]
COc1ccc(-n2cnnc2SCC(=O)N2CCN(S(=O)(=O)c3ccccc3)CC2)cc1 22.4 µM [inhibitor, partial curve, poor fit]
CCCCCCCCC[n+]1cccc2c3ccccc3ccc21 31.6 µM [activator, single point]
CCCOc1ccc(-c2nc(N)n[nH]2)cc1 56.2 µM [inhibitor, single point]
Cn1c(=O)n(C)c2cc([N+](=O)[O-])c(N3CCN(S(=O)(=O)c4ccccc4)CC3)cc21 28.2 µM [inhibitor, partial curve]
Cn1c(N)c(C(=O)COC(=O)c2cc(-c3ccco3)nc3ccccc23)c(=O)n(C)c1=O 31.6 µM [activator, partial curve]
CCC1C(=NO)C(CC)C(c2ccccc2)NC1c1ccccc1 (centres undefined) 0.158 µM [activator, full curve, poor fit]
CCN(CC)C(=O)CSC1=Nc2ccccc2C2=NC(Cc3c[nH]c4ccccc34)C(=O)N12 (centres undefined) 50.1 µM [inhibitor, single point]
Cc1ccc(S(=O)(=O)NC(=O)c2ccc(-c3ccc(-c4ccccc4)cc3)o2)c(C)c1 39.8 µM [inhibitor, partial curve]
CC1CC(=O)N(C)c2ccc([N+](=O)[O-])cc2N1 (centres undefined) 35.5 µM [inhibitor, single point]
COc1ccc(CCNC(=S)Nc2cccc(C)c2C)cc1 22.4 µM [activator, single point]
CCC(C)(C)n1nnnc1C(c1cc2ccc(OC)cc2[nH]c1=O)N1CCc2ccccc21 (centres undefined) 35.5 µM [inhibitor, single point]
CCOc1cnc(-c2c(-c3c(Cl)cccc3Cl)noc2C)o1 3.55 µM [inhibitor, partial curve, poor fit]
Cc1c(CCC(C)C)c(=O)n2c([nH]c3ccccc32)c1C#N 3.98 µM [activator, full curve]
CCC(=O)N1CCN(c2ccccc2NC(=O)COc2cc(C)ccc2C(C)C)CC1 0.178 µM [inhibitor, full curve, poor fit]
Clc1ccc2c(c1)[C@H]1OCC[C@H]1[C@@H](c1ccco1)N2 35.5 µM [activator, partial curve]
Cc1ccc(-c2cc(-c3ccc4c(c3)OCO4)c(C#N)c(N)n2)o1 3.98 µM [activator, single point]
Cc1sc2c(=O)n3c(nc2c1C(=O)NC1CCCCC1)CCCCC3 1 µM [inhibitor, full curve, poor fit]
CCN1CCN(CCCNC(=O)c2cc3cc4ccc(OC)cc4nc3o2)CC1 35.5 µM [activator, partial curve]
